Among all 310,000 compounds or so, about 2,200 (0.71%) showed an effect of 50% or more. The effect is printed as a negative number. Some of the results follow.
The compounds below were run against human ether-à-go-go-related gene (hERG) potassium channel (human, UniProt Q12809) (assay: primary screen, population patch clamp on CHO cells stably expressing hERG).
Chain of human ether-à-go-go-related gene (hERG) potassium channel (Q12809 whole entry, looked up): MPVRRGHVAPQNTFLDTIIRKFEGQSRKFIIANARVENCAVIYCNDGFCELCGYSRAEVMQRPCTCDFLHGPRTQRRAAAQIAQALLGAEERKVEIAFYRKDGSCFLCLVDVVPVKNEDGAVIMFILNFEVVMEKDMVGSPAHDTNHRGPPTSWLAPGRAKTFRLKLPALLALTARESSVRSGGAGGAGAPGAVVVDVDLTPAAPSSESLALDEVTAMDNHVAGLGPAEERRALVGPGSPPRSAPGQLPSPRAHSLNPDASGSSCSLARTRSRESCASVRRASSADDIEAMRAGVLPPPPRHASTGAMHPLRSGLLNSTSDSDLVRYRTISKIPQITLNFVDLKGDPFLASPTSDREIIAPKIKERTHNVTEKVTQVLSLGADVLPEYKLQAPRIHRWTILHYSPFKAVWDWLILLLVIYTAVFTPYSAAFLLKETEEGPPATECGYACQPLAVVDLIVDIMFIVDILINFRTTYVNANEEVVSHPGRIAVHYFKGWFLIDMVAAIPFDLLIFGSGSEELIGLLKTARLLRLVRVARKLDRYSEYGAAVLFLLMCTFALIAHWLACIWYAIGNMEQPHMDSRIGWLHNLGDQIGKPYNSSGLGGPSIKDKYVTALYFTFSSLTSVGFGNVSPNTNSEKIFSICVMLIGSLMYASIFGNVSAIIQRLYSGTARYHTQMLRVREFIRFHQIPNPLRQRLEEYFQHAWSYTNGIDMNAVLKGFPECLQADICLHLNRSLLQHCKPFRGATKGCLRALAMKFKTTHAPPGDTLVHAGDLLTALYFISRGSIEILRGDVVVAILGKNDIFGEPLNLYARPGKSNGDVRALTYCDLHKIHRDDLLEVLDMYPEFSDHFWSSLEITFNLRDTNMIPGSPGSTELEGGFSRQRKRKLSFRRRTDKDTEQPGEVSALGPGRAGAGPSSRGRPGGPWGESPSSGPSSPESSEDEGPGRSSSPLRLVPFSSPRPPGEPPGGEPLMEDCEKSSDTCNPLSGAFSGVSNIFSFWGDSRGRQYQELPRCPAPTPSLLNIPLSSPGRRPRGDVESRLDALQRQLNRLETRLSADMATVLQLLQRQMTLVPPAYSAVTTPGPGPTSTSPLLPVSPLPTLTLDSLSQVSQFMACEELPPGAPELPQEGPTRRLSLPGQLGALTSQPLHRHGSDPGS

Row | SMILES | hERG current change (%, negative = inhibition) at 1uM [%]
1 | COc1ccccc1CN1CC(C(=O)NCc2cccc(Cl)c2)CCC1=O (stereo not drawn) | 7.73
2 | Cc1ccc(NC(=S)N2CCN(S(=O)(=O)c3c(F)cccc3F)CC2)cc1C | 8.69
3 | c1cc(-c2ccncc2)ccn1 | 16.2
4 | CC(C)Oc1ccc(/C=C(/NC(=O)c2ccccc2)C(=O)NC(Cc2ccccc2)C(=O)O)cc1 (stereo not drawn) | 14.6
5 | CCCCCCCC(=O)NNC(=O)c1c(O)c2ccccc2n(CC)c1=O | 15.8
6 | COc1ccccc1C/C(N)=N/OC(=O)COc1ccc(C)cc1 | 0.816
7 | CC(=O)Nc1ccc(S(=O)(=O)NCc2ccc(C)cc2)cc1 | 8.26
8 | CN(C)S(=O)(=O)c1cccc(NC(=O)c2cccc(S(=O)(=O)N3CCCCC3)c2)c1 | -4.77
9 | CCCN1C(=O)/C(=C/c2c(NCCCOC(C)C)nc3c(C)cccn3c2=O)SC1=S | -1.3
10 | CCN(CC)C(=O)c1ccc(C(=O)c2c(C)cc(C)cc2C)cc1 | -13.9
11 | Cl.O=C(CCN1CCCC1Cc1ccccc1)c1ccc2c(c1)OCCO2 (stereo not drawn) | -21.9
12 | C#Cc1ccc(C(=O)Nc2ccc(N3CCC(C)CC3)c(C(N)=O)c2)cc1 | 0.866
13 | O=C(NCc1ccc2c(c1)OCO2)C1CC(c2cccc(Br)c2)=NO1 (stereo not drawn) | -2.6
14 | COc1ccnc(Oc2ccc(F)cc2)c1C(=O)N/C=N/OCc1ccc(Cl)cc1Cl | 20.2
15 | CO/N=C/c1ccc(Sc2ccc(C)cc2)c([N+](=O)[O-])c1 | 8.8
16 | Cc1ccc(S(=O)(=O)N(C)C)cc1NC(=O)C(C)OC(=O)/C=C/c1cccs1 (stereo not drawn) | -5.2
17 | O=C(O)C1CCCN1S(=O)(=O)c1ccc(Br)cc1 (stereo not drawn) | 4.4
18 | COc1ccc(-c2nc3ccccc3c(=O)n2CC(C)C)cc1 | 17
19 | CCOc1ccc(Nc2oc(-c3cccc(Cl)c3)nc2C#N)cc1 | 20.2
20 | CCO/C=N/c1c(C#N)c2c(c(=S)n1C)COC(C)(C)C2 | 18.8
21 | O=c1c2ccccc2nc(SCc2ccc([N+](=O)[O-])cc2)n1CCCO | 7.99
22 | CN(C)/C=C/C(=O)c1ccc(Oc2ccccc2)cc1 | 13.9

Row | SMILES | hERG current change (%, negative = inhibition) at 1uM [%]
23 | Cc1ccc(C(=O)OCC(=O)Nc2cc(S(C)(=O)=O)ccc2Cl)cc1S(=O)(=O)N1CCCCC1 | -6.53
24 | CCOc1cccc(NC(=O)/C(C#N)=C\c2cccnc2)c1 | 16.4
25 | CN1C(=O)CSc2ccc(NC(=O)NCCC3=CCCCC3)cc21 | 9.65
26 | CC(=O)Nc1nn(C)c2nc(C)cc(C)c12 | 9.38
27 | O=C(NCC(=O)N(c1cccnc1)C(C(=O)NCc1ccco1)c1ccccc1)c1ccco1 (stereo not drawn) | 3.6
28 | COCCc1ncc(CN2CCC(C(=O)Nc3cccc(-c4cscn4)c3)CC2)cn1 | 12.2
29 | O=C(CC1NC2CCCCC2NC1=O)Nc1cccc(C(F)(F)F)c1 (stereo not drawn) | 4.08
30 | O=C(c1cccs1)N1C2CCC1CC(O)(c1cccnc1)C2 (stereo not drawn) | 0.852
31 | C=CCSc1nnc(NC(=O)c2nc(SCC)ncc2Cl)s1 | -4.9
32 | CC(=O)NC(Cc1ccc(C)cc1)C(=O)NC1CCN(c2ncccc2[N+](=O)[O-])CC1 (stereo not drawn) | 15.2
33 | COc1ccc(N2CCN(C(=O)C(=O)c3c[nH]c4ccccc34)CC2)cc1 | 19
34 | COc1ccc(CCOC(=O)CNC(=O)c2ccc(Cl)cc2Cl)cc1 | 13.2
35 | CN(C)CCCNC(=O)C(=O)NCC1CCCO1 (stereo not drawn) | 11.2
36 | Cc1ccccc1C(=O)Nc1nnc(CC(=O)N/N=C/c2ccco2)s1 | 4.55
37 | CCOC(=O)CC(=O)CSc1ncnc2c1oc1ccccc12 | 12.4
38 | CCOC(=O)CSc1nc(C)nc2c1sc1nc(C)c(C(C)=O)c(-c3ccc(OC)cc3)c12 | 4.4
39 | CN(C(=O)CC1C(=O)NCCN1Cc1cccc(C(F)(F)F)c1)C1CCOCC1 (stereo not drawn) | 15.5
40 | CSc1nnc(CCNS(=O)(=O)c2ccc(Br)cc2)n1C | 12
41 | Cc1cc(Cl)ccc1OCC(=O)NCCCn1ccnc1 | -5.64
42 | Cc1nn(C)c(C)c1S(=O)(=O)N1CCC(C(=O)Nc2ccc3c(c2)OCCO3)CC1 | 12.2
43 | COc1ccc(N2CCN(S(=O)(=O)CCNC(=O)c3ccc4c(c3)OCO4)CC2)cc1 | 11.6
44 | CCCCn1c(Oc2ccc(C(=O)OC)cc2)nc2c1c(=O)n(C)c(=O)n2C | 4.42

Row | SMILES | hERG current change (%, negative = inhibition) at 1uM [%]
45 | Cn1cc(C(=O)c2ccc(Cl)cc2Cl)cc1C(=O)N/N=C(\N)COc1ccc(Cl)cc1Cl | -2.64
46 | N=c1oc2ccccc2cc1-c1nc(-c2ccccc2)cs1 | 3
47 | O=C(CCN1C(=O)c2ccccc2C1=O)Nc1sc2c(c1C(=O)NCC1CCCO1)CCC2 (stereo not drawn) | 12.4
48 | CCCc1cc(=O)oc2cc(OCC(=O)N3CCOCC3)c(Cl)cc12 | 11
49 | CC1CCN(C(=O)CN(c2ccc(Oc3ccccc3)cc2)S(C)(=O)=O)CC1 | 7.34
50 | O=C(CCN1C(=O)C2CC=C(Cl)CC2C1=O)NCc1ccco1 (stereo not drawn) | 0.455
51 | Cc1ccn(CCNC(=O)C2CCC(=O)N(Cc3ccc(Cl)cc3)C2)n1 (stereo not drawn) | 18.5
52 | O=C1NC(=O)/C(=C\c2cn(Cc3ccccc3F)c3ccccc23)N1 | 12.3
53 | CCCCn1c(N)c(N(CC(C)C)C(=O)C2CC(=O)N(Cc3ccccc3)C2)c(=O)[nH]c1=O (stereo not drawn) | 6.31
54 | CC(=O)NC(=S)Nc1ccc(NC(=O)c2cccs2)cc1 | 5.61
55 | Cn1nc(C(=O)Nc2sc3c(c2C#N)CCCC3)ccc1=O | 8.91
56 | CCCOC(=O)c1c(NC(=O)/C=C/c2cnn(C)c2C)sc(C(=O)OCC)c1C | 11.5
57 | COc1cccc(-c2nn(C)c3sc(C(=O)NCc4ccc(C)cc4)cc23)c1 | 8.72
58 | O=C(CCc1ccccc1)NNC(=O)c1ccccn1 | 13.5
59 | C=CCn1c(C)c(/C=C/c2cc[n+](C)cc2)c2ccccc21.[I-] | 2.44
60 | Cc1noc(C)c1COc1ccccc1C(=O)NCCc1ccc(Cl)cc1 | 2.76
61 | Cc1ccc2oc(-c3ccco3)cc(=O)c2c1 | 17.6
62 | N#CC1=C(N)Oc2cc(O)ccc2C1c1cccnc1 (stereo not drawn) | 17
63 | O=C(O)c1ccc(COc2ccccc2/C=C2\NC(=O)N(Cc3ccccc3F)C2=O)cc1 | 9.5
64 | CC(C)C(NS(=O)(=O)c1c(Cl)cccc1Cl)C(=O)OCC(=O)c1c[nH]c2ccccc12 (stereo not drawn) | 7.79
65 | O=C(Oc1ccc(Cl)cc1)c1ccc(N2CCOCC2)c([N+](=O)[O-])c1 | 1.31
66 | CCCCCCCCCCCCOC1OC(CO)C(O)C(O)C1NC(C)=O (stereo not drawn) | 4.7

Row | SMILES | hERG current change (%, negative = inhibition) at 1uM [%]
67 | CCOCc1c(C(=O)OCC(=O)NCc2ccc(F)cc2)oc2ccccc12 | -1.49
68 | Cc1coc(C)c1C(=O)CC1(O)C(=O)N(CCc2ccccc2)c2ccccc21 (stereo not drawn) | 10.8
69 | CCN(CC)S(=O)(=O)c1ccc(NCc2ccccc2)nc1 | -0.48
70 | CCSc1nc(N)c2c3c(sc2n1)CCC3 | -0.031
71 | CCCC(=O)Nc1ccc(Cl)c(-c2nc3ncccc3o2)c1 | 13.7
72 | Cc1ccc(NC(=O)CCNS(=O)(=O)c2ccc(Br)s2)cc1 | 14.5
73 | COc1cccc(NC(=O)CSc2nc(N)cc(N)n2)c1 | 5.5
74 | O=C(CN1C(=O)CC(c2ccco2)Sc2ccccc21)NCc1ccc2c(c1)OCO2 (stereo not drawn) | -8.24
75 | CCCN(CCC)C(=O)c1cc([N+](=O)[O-])cc2c1-c1ccc([N+](=O)[O-])cc1C2=C(C#N)C#N | 2.63
76 | O=[N+]([O-])c1ccc(C[n+]2ccc(Cc3ccccc3)cc2)cc1.[Cl-] | 2.71
77 | CCN(CC(=O)Nc1ccc(N2CCOCC2)cc1)CC(=O)NC(C)(C)C | 6.36
78 | O=C(c1ccco1)N1CCN(C2CCCC2)CC1 | 11.6
79 | CCc1nnc(SC(C)C(=O)Nc2nccs2)n1C (stereo not drawn) | -2.11
80 | O=C(CN1CCc2ccccc21)NN1CC(=O)N(c2ccc(Cl)cc2)CC1=O | 13.8
81 | CSc1ccc(S(=O)(=O)N2CCC(C(=O)Nc3cccnc3)CC2)cc1 | -0.0764
82 | COc1ccc(NC(=O)c2nc(C)c(C3(C)CC(c4ccccc4)=NO3)s2)cc1 (stereo not drawn) | 7.07
83 | CC(=O)Nc1ccc(OS(=O)(=O)c2ccc(Cl)cc2)cc1 | -1.62
84 | O=c1c2oc3ccccc3c2ncn1Cc1cccc(Cl)c1 | 13.2
85 | Cc1ccccc1NC(=O)NCc1ccc2c(c1)OCO2 | 8.1
86 | COCCN(CC(=O)Nc1cccc(C)c1C)C(=O)Cc1cccs1 | 3.39
87 | Nc1c(-c2ccc(Cl)cc2)cnn1-c1cc(C(F)(F)F)cc(C(F)(F)F)c1 | 9.14
